According to PubChem BioAssay AID624296 (National Center for Advancing Translational Sciences (NCATS), 2012):
Among all 350,000 compounds or so, about 9,900 (2.8%) were called active. Inconclusive results, whose numbers are uncertain, are shown with a selection of clear calls. The call rests on the fitted dose curve; in most records, active means well fitted activation curve with a large enough effect; inconclusive means small, poorly fitted or top-dose-only effect; inactive means no such curve, though single readings can be large or run the other way. No potency is given beside an inconclusive call; the fits are too rough.

Assay: A quantitative high throughput screen for small molecules that induce DNA re-replication in MCF 10a normal breast cells. Further: nearly all actives have a fitted effect of over 50% in size. On activity, positive = re-replication: % of control where 0% means no effect.
Settings: MCF 10A DNA re-replication, Hoechst nuclear intensity, 48 h; activity, positive = re-replication: at 46.1 µM (top of the series)
Potency means the concentration at half of the fitted maximal effect; tags describe the fitted curve by direction and shape.

SMILES	Potency	activity, positive = re-replication
CCN(C(=O)COC(=O)/C=C/c1ccc(S(=O)(=O)N2CCc3ccccc32)cc1)C1CCS(=O)(=O)C1 (stereo not given)	inconclusive [activator, partial curve, poor fit]	–
CCN1CCN(C(=O)NCc2ccccc2)CC1	inconclusive [activator, full curve, poor fit]	–
COc1cc(C2C3=C(COC3=O)Oc3cc4c(cc32)OCO4)cc(OC)c1O (stereo not given)	inconclusive [activator, full curve, poor fit]	–
Cc1cc(Cl)c(Cl)cc1S(=O)(=O)NCCCn1ccnc1	inconclusive [activator, single point]	–
CCOC(=O)NC1(NCc2ccccc2)Oc2ccccc2O1	inconclusive [activator, single point]	–
COc1cccc(N2CCN(CC(=O)Nc3nc4c(s3)CC(C)CC4)CC2)c1 (stereo not given)	–	inactive: -1.58%
CCOC(=O)c1cccc(NC(=O)c2ccc(-n3cnnn3)cc2)c1	–	inactive: -12%
C[C@H]1CC[C@]2(OC1)O[C@@H]1C[C@@H]3[C@@H]4CC[C@H]5C[C@@H](O)CC[C@]5(C)[C@@H]4CC(=O)[C@@]3(C)[C@H]1[C@@H]2C	–	inactive: 5.78% [at 20.6 µM]
COc1cc2c(cc1OC)CN(c1ccc(C(F)(F)F)cn1)CC2	active: 16.4 µM	–
O=[N+]([O-])c1ccc(COn2nnc3ccccc32)cc1	–	inactive: -23.5%
Cc1cccc(NC(=O)c2cccc(N3C(=O)C4C5C=CC(C6CC56)C4C3=O)c2)c1 (stereo not given)	inconclusive [activator, partial curve, poor fit]	–
CC(=O)C1=C(C)NC(SCC(=O)Nc2nc3ccccc3s2)=C(C#N)C1c1ccc(Cl)cc1 (stereo not given)	–	inactive: 22.2%
CNC(=S)NNC(=O)Cc1ccccc1	–	inactive: 6.4%
O=C(NC1CCCC(C(F)(F)F)C1)c1ccc([N+](=O)[O-])o1 (stereo not given)	active: 6.51 µM	–
CC(=O)c1cccc(-n2nnnc2SCC(=O)Nc2ccccc2N2CCCCC2)c1	inconclusive [activator, full curve, poor fit]	–
CC1(c2ccccc2)NC(=O)N(CC(=O)Nc2cc(C(F)(F)F)ccc2N2CCCCC2)C1=O (stereo not given)	inconclusive [activator, single point]	–
CC1CCc2c(N3CCC(O)CC3)c(F)cc3c(=O)c(C(=O)O)cn1c23 (stereo not given)	inactive	–
CCOC(=O)C1CCN(C2CCN(C(=O)c3oc4c(C)c(C)ccc4c3C)CC2)CC1	inconclusive [activator, single point]	–
O=c1c(-c2ccccc2)nc(-c2ccccc2)cn1O	inconclusive [activator, partial curve, poor fit]	–
COc1ccc(N(CC(=O)Nc2cc(OC)c(OC)cc2C(=O)O)S(=O)(=O)c2c(C)noc2C)cc1	–	inactive: 0.533%
Cc1c(C(=O)N(C)Cc2ccc(OC(F)F)cc2)oc2ccccc12	inconclusive [activator, partial curve, poor fit]	–
CCn1c2ccccc2c2cc(NC(=O)CN(C)CC(=O)Nc3ccc(N4CCOCC4)cc3)ccc21	–	inactive: -6.7%
O=C(COCc1ccccc1)N[C@@H]1c2ccccc2CC[C@H]1OCc1ccccc1	inconclusive [activator, partial curve]	–
CN1CCN(CC2(O)CCN(S(=O)(=O)c3ccc(Cl)cc3)CC2)CC1	inconclusive [activator, single point]	–

SMILES	Potency	activity, positive = re-replication
COc1cccc(N=Nc2c(N)[nH]n3c(=O)cc(-c4ccccc4)nc23)c1	inconclusive [activator, full curve]	–
Cc1ccc(CN2CCC(CNC(=O)Nc3ccccc3F)CC2)cc1	–	inactive: 15.2%
COc1cc(NC(=O)NCC2CCN(Cc3ccccc3C)CC2)cc(OC)c1OC	–	inactive: -12.5%
CCCSc1nc(C)c(CC(=O)OCC)c(=O)[nH]1	inconclusive [activator, single point]	–
COC(=O)c1ccccc1NC(=S)NC(NC(=O)c1ccco1)C(Cl)(Cl)Cl (stereo not given)	inconclusive [activator, single point]	–
CCn1c(CNc2ccc(Cl)cc2)nnc1SCCN1CCCCC1	inconclusive [activator, partial curve, poor fit]	–
CCc1ccc(NC(=O)Cc2c(C(=O)O)n(C)c3ccccc23)cc1	–	inactive: -6.52%
C=CCOc1c(CNC2CCCC2)cc(Cl)cc1OC	inconclusive [activator, partial curve, poor fit]	–
COC(=O)C1C(c2ccc(OC)cc2)Nc2nnc(C(F)(F)F)n2C1(C)O (stereo not given)	–	inactive: 2.6%
O=c1c2ccccc2sc2ccccc12	–	inactive: -0.173%
CC1CCCCN1C(=O)CCC(=O)Nc1nnc(C(F)(F)F)s1 (stereo not given)	active: 23.1 µM	–
CCc1cc(=O)oc2c(CNCc3ccc(OC)cc3OC)c(O)c(Cl)cc12	inconclusive [activator, single point]	–
CCOC(=O)c1ccc(N2C(=O)C=C(N3CCOCC3)C2=O)cc1	–	inactive: -1.06%
O=C(Cn1cnc2c(nnn2Cc2ccc(F)cc2)c1=O)OCc1ccccc1	–	inactive: -0.0894%
CCOC(=O)c1ccc(NS(=O)(=O)c2c(N)n(C)c(=O)n(C)c2=O)cc1	inconclusive [activator, single point]	–
COC(=O)c1ccc(-n2c(C)cc(C(=O)CSc3ccc(NC(C)=O)cc3)c2C)cc1	inconclusive [activator, single point]	–
CCCc1cc(=O)[nH]c(SCC(=O)Nc2sc3c(c2C#N)CCC(C)C3)n1 (stereo not given)	inconclusive [activator, single point]	–
Cc1nn(-c2ccc(Cl)cc2)c2[nH]c(CCl)cc(=O)c12	inconclusive [activator, single point]	–
COc1ccc2c(c1)C=C(CN1CCN(C3CCCC3)C(CCO)C1)CO2 (stereo not given)	inconclusive [activator, partial curve, poor fit]	–
CCCC(=O)Nc1nn(C)c2nc3c(C)cccc3cc12	inconclusive [activator, single point]	–
CC(c1nccs1)N(C)C(=O)CCc1nnc(-c2ccc(-c3ccccc3)cc2)o1 (stereo not given)	inconclusive [activator, single point]	–
CC(C)c1cccc(C(C)C)c1NC(=O)CN1C(=O)NC2(CCCC2)C1=O	–	inactive: -0.752%
O=S(=O)(Nc1ccc2c(c1)OCCO2)c1ccc(F)c(F)c1	inconclusive [activator, partial curve, poor fit]	–
Cc1ccc(-c2nnc(-c3cc(C)on3)o2)cc1	–	inactive: 2.1%

SMILES	Potency	activity, positive = re-replication
CCn1cc(CCC(=O)NCc2cccc(OC)c2OC)c2ccccc21	–	inactive: -9.31%
Cn1ccnc1C(=O)c1cccc(Br)c1	–	inactive: 0.478%
C=CCN(c1ccc(F)cc1)S(=O)(=O)c1cc(C(=O)OCC(=O)N(C)C2CCS(=O)(=O)C2)ccc1Cl (stereo not given)	inconclusive [activator, single point]	–
CC#CCN1c2ccccc2[C@]23C[C@@H](C(=O)OC)N(C(=O)C4CCC4)C2=NC(C(=O)OC)=C(C(=O)OC)[C@H]13	inconclusive [activator, single point]	–
CN(CC/C=C1/c2ccccc2CSc2ccccc21)CCCO	–	inactive: 13.1%
O=C(COC(=O)c1ccccc1NC(=O)c1ccccc1)c1ccc([N+](=O)[O-])cc1	–	inactive: -31.2%
O=C(NCc1nnc2c3ccccc3c(-c3ccccc3)nn12)c1ccc(Cl)cc1	inconclusive [activator, partial curve, poor fit]	–
COc1ccc([C@H]2CC(=O)C=C(c3cc(Cl)cc(Cl)c3)C2)cc1	inconclusive [activator, single point]	–
Cn1c(C(=O)NCCCN2CCCC2=O)cc2c(=O)n(C)c3ccccc3c21	–	inactive: 3.38%
Cc1ccccc1NC(=O)N1CCCC(c2nc(-c3ccc(F)cc3)no2)C1 (stereo not given)	–	inactive: 3.37%
CC(C)(C)C(=O)NC(NC(=S)Nc1sc2c(c1C#N)CCCC2)C(Cl)(Cl)Cl (stereo not given)	inconclusive [activator, partial curve]	–
O=c1cc2c(nn1Cc1cccc(Cl)c1)-c1ccccc1CC2	inconclusive [activator, single point]	–
CCn1c2ccccc2c2cc(CN3CCN(S(=O)(=O)Cc4ccccc4)CC3)ccc21	–	inactive: 8.96%
CCCCn1nc(C(=O)NCC2COc3ccccc3O2)c2ccccc2c1=O (stereo not given)	inconclusive [activator, single point]	–
COc1ccccc1[C@@H]1C(c2cccc(C)c2)=NN(c2ccccc2)[C@H]1C(=O)N1CCOC1=O	inconclusive [activator, single point]	–
CCOC(=O)c1cnc(Nc2ccccc2)nc1C(F)(F)F	–	inactive: 0%
CCn1c(SCc2ccccc2)nc2ccccc2c1=O	inconclusive [activator, single point]	–
O=C(CSc1nc2ncccc2[nH]1)Nc1ccc2c(c1)OCO2	inconclusive [activator, full curve, poor fit]	–
Cc1c(C(=O)N2CCOCC2)c(S(=O)(=O)Nc2ccccc2)c(C)n1C	–	inactive: 6.84%
CC[C@]12c3[nH]c4ccccc4c3CCN1C(=O)C(CC(=O)NC/C=C(\C)CCC=C(C)C)C[C@@H]2C(=O)N1CCN(C(=O)C2CC2)CC1 (stereo not given in full)	inconclusive [activator, partial curve, poor fit]	–
COc1cccc(C(=O)Nc2cccc3c2ccc2cccn23)c1	inconclusive [activator, partial curve, poor fit]	–
CC(C)(C)C1CCc2onc(C(=O)Nc3ccc4c(c3)OCO4)c2C1 (stereo not given)	inconclusive [activator, single point]	–
